Assay results: patent US8541447B2 (priority 2003, dated 2013)

Target: α7 nAChR subtype (Rattus norvegicus (Rat), UniProt Q05941)
Conditions: Table 5, effect of the 2-(3-pyridinyl)methyl substituent; read-out: a7 Ki

Chain of α7 nAChR subtype (Q05941 23-502 limits assumed): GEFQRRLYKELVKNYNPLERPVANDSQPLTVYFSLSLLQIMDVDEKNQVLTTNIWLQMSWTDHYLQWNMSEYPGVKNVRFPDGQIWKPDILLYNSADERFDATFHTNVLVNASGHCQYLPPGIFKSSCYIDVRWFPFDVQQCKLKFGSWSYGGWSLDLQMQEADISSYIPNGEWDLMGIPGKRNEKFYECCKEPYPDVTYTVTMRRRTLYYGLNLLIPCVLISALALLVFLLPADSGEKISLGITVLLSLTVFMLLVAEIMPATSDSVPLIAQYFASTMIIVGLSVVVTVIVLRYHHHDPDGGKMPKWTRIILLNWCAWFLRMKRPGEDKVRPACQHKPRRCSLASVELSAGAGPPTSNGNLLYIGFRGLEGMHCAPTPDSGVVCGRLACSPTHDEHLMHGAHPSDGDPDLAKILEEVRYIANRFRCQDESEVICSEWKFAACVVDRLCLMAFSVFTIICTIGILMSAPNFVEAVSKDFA

O=C(Nc1ccc(Br)cc1)OC1CN2CCC1CC2 (stereo not shown)
Ki: 40 nM
